Experimental data taken from the supplement of paper PMC4967469.
IC50 is the fitted dose that halves viability relative to control wells, and lower means more sensitive; where the fit passes the top or lowest dose, that dose stands as a limit. For AUC the same curve is integrated over the 256-fold range of doses and scaled to a fraction; values near 1 show little effect. For part of these data: A top dose marked as inferred comes from the curve model; the source does not state it. For part of these data: An entry number marks a drug with two screens in the source, which often give different values.

Legend:
Test in all cases: Viability of human cancer cell lines after 72 h of drug (GDSC screen)
Parthenolide = compound: C=C1C(=O)O[C@H]2[C@H]1CC/C(C)=C/CC[C@@]1(C)O[C@@H]21 [Parthenolide]; conditions: top dose 5 µM
Procedure: (§1)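 Human cancer cell lines in 384-well plates, medium with 10% serum, drug for 72 h over a 256-fold dose range (nine 2-fold or five 4-fold steps up to the top dose). Adherent lines were fixed and stained with the nucleic acid dye Syto60, suspension lines read with resazurin; signal relative to control wells, capped at 0 and 100%. One two-parameter sigmoid per drug and line, fitted in a mixed model over all curves with the slope shared within a line.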

PAC-1 = compound: C=CCc1cccc(/C=N/NC(=O)CN2CCN(Cc3ccccc3)CC2)c1O [PAC-1]; conditions: top dose 2.56 µM
Procedure: as §1

KIN001-135 = compound: COc1cc2ncn(-c3cc(OCc4ccccc4S(C)(=O)=O)c(C#N)s3)c2cc1OC [KIN001-135]; conditions: top dose 5 µM; top dose inferred
Procedure: as §1

BMS-708163 = compound: NC(=O)[C@@H](CCC(F)(F)F)N(Cc1ccc(-c2ncon2)cc1F)S(=O)(=O)c1ccc(Cl)cc1 [BMS-708163]; conditions: top dose 5 µM; screen: GDSC drug entry 1072; top dose inferred
Procedure: as §1

| Cell Line | AUC (Parthenolide) | IC50 (Parthenolide) [µM] | AUC (PAC-1) | IC50 (PAC-1) [µM] | AUC (KIN001-135) | IC50 (KIN001-135) [µM] | AUC (BMS-708163) | IC50 (BMS-708163) [µM] |
| --- | --- | --- | --- | --- | --- | --- | --- | --- |
| EW-24 (Ewing sarcoma, semi-adherent) | 0.991 | > 5 | 0.981 | > 2.56 | 0.992 | > 5 | 0.987 | > 5 |
| EoL-1-cell (haematopoietic neoplasm, suspension) | 0.985 | > 5 | 0.869 | 1.9 | 0.944 | > 5 | 0.985 | > 5 |
| Farage (B-cell lymphoma, suspension) | 0.872 | 3.36 | 0.882 | 1.87 | 0.993 | > 5 | 0.968 | > 5 |
| GB-1 (glioma, adherent) | 0.983 | > 5 | 0.925 | > 2.56 | 0.982 | > 5 | 0.979 | > 5 |
| GCIY (stomach, adherent) | 0.801 | 2.81 | 0.938 | > 2.56 | 0.982 | > 5 | 0.93 | > 5 |
| GDM-1 (acute myeloid leukaemia, suspension) | 0.971 | > 5 | 0.871 | 2.23 | 0.987 | > 5 | 0.987 | > 5 |
| GI-1 (glioma, adherent) | 0.93 | > 5 | 0.983 | > 2.56 | 0.982 | > 5 | 0.978 | > 5 |
| GI-ME-N (neuroblastoma, adherent) | 0.821 | 4.37 | 0.975 | > 2.56 | 0.952 | > 5 | 0.963 | > 5 |
| GOTO (neuroblastoma, adherent) | 0.962 | > 5 | 0.961 | > 2.56 | 0.981 | > 5 | 0.928 | > 5 |
| GR-ST (lymphoblastic leukaemia, suspension) | 0.97 | > 5 | 0.838 | 2.27 | 0.968 | > 5 | 0.981 | > 5 |
| GRANTA-519 (B-cell lymphoma, suspension) | 0.986 | > 5 | 0.983 | > 2.56 | 0.991 | > 5 | 0.988 | > 5 |
| GT3TKB (stomach, adherent) | 0.99 | > 5 | 0.987 | > 2.56 | 0.99 | > 5 | 0.99 | > 5 |
| H9 (lymphoid neoplasm, suspension) | 0.815 | 2.15 | 0.868 | 1.67 | 0.992 | > 5 | 0.992 | > 5 |
| H-EMC-SS (chondrosarcoma, adherent) | 0.981 | > 5 | 0.981 | > 2.56 | 0.974 | > 5 | 0.905 | > 5 |
| HA7-RCC (kidney, adherent) | 0.981 | > 5 | 0.959 | > 2.56 | 0.984 | > 5 | 0.979 | > 5 |
| HAL-01 (lymphoblastic leukaemia, suspension) | 0.863 | 3.52 | 0.721 | 0.62 | 0.989 | > 5 | 0.985 | > 5 |
| HC-1 (hairy cell leukaemia, suspension) | 0.863 | 4.06 | 0.814 | 1.33 | 0.979 | > 5 | 0.985 | > 5 |
| HCC1187 (breast, suspension) | 0.961 | > 5 | 0.975 | > 2.56 | 0.978 | > 5 | 0.942 | > 5 |
| HCC1500 (breast, adherent) | 0.98 | > 5 | 0.977 | > 2.56 | 0.977 | > 5 | 0.983 | > 5 |
| HCC2157 (breast, suspension) | 0.975 | > 5 | 0.955 | > 2.56 | 0.947 | > 5 | 0.975 | > 5 |

| Cell Line | AUC (Parthenolide) | IC50 (Parthenolide) [µM] | AUC (PAC-1) | IC50 (PAC-1) [µM] | AUC (KIN001-135) | IC50 (KIN001-135) [µM] | AUC (BMS-708163) | IC50 (BMS-708163) [µM] |
| --- | --- | --- | --- | --- | --- | --- | --- | --- |
| HCC2218 (breast, suspension) | 0.984 | > 5 | 0.759 | 1.11 | 0.969 | > 5 | 0.98 | > 5 |
| HCC2998 (large intestine, adherent) | 0.981 | > 5 | 0.827 | 1.5 | 0.988 | > 5 | 0.966 | > 5 |
| HD-MY-Z (Hodgkin lymphoma, adherent) | 0.83 | 3.16 | 0.972 | > 2.56 | 0.973 | > 5 | 0.976 | > 5 |
| HDLM-2 (Hodgkin lymphoma, suspension) | 0.981 | > 5 | 0.843 | 1.77 | 0.987 | > 5 | 0.989 | > 5 |
| HEL (acute myeloid leukaemia, semi-adherent) | 0.805 | 2.04 | 0.855 | 1.52 | 0.968 | > 5 | 0.992 | > 5 |
| HH (T-cell leukaemia, suspension) | 0.977 | > 5 | 0.872 | > 2.56 | 0.978 | > 5 | 0.976 | > 5 |
| HOP-62 (lung adenocarcinoma, adherent) | 0.955 | > 5 | 0.869 | 2.35 | 0.974 | > 5 | 0.986 | > 5 |
| HSC-39 (stomach, suspension) | 0.991 | > 5 | 0.955 | > 2.56 | 0.99 | > 5 | 0.977 | > 5 |
| HT (B-cell lymphoma, suspension) | 0.99 | > 5 | 0.86 | 1.87 | 0.989 | > 5 | 0.989 | > 5 |
| HT-144 (melanoma, adherent) | 0.98 | > 5 | 0.83 | 1.88 | 0.984 | > 5 | 0.984 | > 5 |
| HUTU-80 (digestive system, adherent) | 0.947 | > 5 | 0.978 | > 2.56 | 0.975 | > 5 | 0.962 | > 5 |
| IM-9 (myeloma, suspension) | 0.96 | > 5 | 0.939 | > 2.56 | 0.988 | > 5 | 0.991 | > 5 |
| IMR-5 (neuroblastoma, adherent) | 0.992 | > 5 | 0.925 | > 2.56 | 0.992 | > 5 | 0.992 | > 5 |
| IST-MEL1 (melanoma, adherent) | 0.982 | > 5 | 0.91 | > 2.56 | 0.982 | > 5 | 0.969 | > 5 |
| IST-MES1 (mesothelioma, adherent) | 0.985 | > 5 | 0.987 | > 2.56 | 0.988 | > 5 | 0.988 | > 5 |
| IST-SL1 (small cell lung carcinoma, semi-adherent) | 0.971 | > 5 | 0.972 | > 2.56 | 0.983 | > 5 | 0.984 | > 5 |
| IST-SL2 (small cell lung carcinoma, suspension) | 0.871 | 4.64 | 0.855 | 2.01 | 0.989 | > 5 | 0.976 | > 5 |
| JAR (urogenital system, adherent) | 0.988 | > 5 | 0.985 | > 2.56 | 0.976 | > 5 | 0.978 | > 5 |
| JJN-3 (haematopoietic neoplasm, suspension) | 0.846 | 2.72 | 0.99 | > 2.56 | 0.992 | > 5 | 0.988 | > 5 |
| JM1 (B-cell lymphoma, suspension) | 0.841 | 2.79 | 0.939 | > 2.56 | 0.989 | > 5 | 0.987 | > 5 |

| Cell Line | AUC (Parthenolide) | IC50 (Parthenolide) [µM] | AUC (PAC-1) | IC50 (PAC-1) [µM] | AUC (KIN001-135) | IC50 (KIN001-135) [µM] | AUC (BMS-708163) | IC50 (BMS-708163) [µM] |
| --- | --- | --- | --- | --- | --- | --- | --- | --- |
| JURL-MK1 (chronic myeloid leukaemia, suspension) | 0.977 | > 5 | 0.963 | > 2.56 | 0.981 | > 5 | 0.986 | > 5 |
| JVM-2 (lymphoid neoplasm, suspension) | 0.98 | > 5 | 0.973 | > 2.56 | 0.976 | > 5 | 0.977 | > 5 |
| JVM-3 (lymphoid neoplasm, suspension) | 0.983 | > 5 | 0.962 | > 2.56 | 0.987 | > 5 | 0.987 | > 5 |
| JiyoyeP-2003 (Burkitt lymphoma, suspension) | 0.94 | > 5 | 0.796 | 1.03 | 0.989 | > 5 | 0.99 | > 5 |
| K5 (thyroid, adherent) | 0.912 | > 5 | 0.952 | > 2.56 | 0.988 | > 5 | 0.984 | > 5 |
| KALS-1 (glioma, adherent) | 0.949 | > 5 | 0.857 | > 2.56 | 0.976 | > 5 | 0.971 | > 5 |
| KARPAS-45 (lymphoblastic leukaemia, suspension) | 0.974 | > 5 | 0.844 | 1.39 | 0.991 | > 5 | 0.977 | > 5 |
| KARPAS-231 (B-cell leukaemia, suspension) | 0.81 | 1.92 | 0.848 | 1.28 | 0.989 | > 5 | 0.993 | > 5 |
| KARPAS-299 (anaplastic large cell lymphoma, suspension) | 0.992 | > 5 | 0.982 | > 2.56 | 0.99 | > 5 | 0.992 | > 5 |
| KARPAS-422 (B-cell lymphoma, suspension) | 0.985 | > 5 | 0.912 | > 2.56 | 0.988 | > 5 | 0.978 | > 5 |
| KCL-22 (chronic myeloid leukaemia, suspension) | 0.919 | > 5 | 0.886 | 2.04 | 0.991 | > 5 | 0.991 | > 5 |
| KE-37 (lymphoblastic leukaemia, suspension) | 0.969 | > 5 | 0.551 | – | 0.994 | > 5 | 0.994 | > 5 |
| KELLY (neuroblastoma, adherent) | 0.987 | > 5 | 0.962 | > 2.56 | 0.987 | > 5 | 0.979 | > 5 |
| KG-1 (acute myeloid leukaemia, suspension) | 0.962 | > 5 | 0.944 | > 2.56 | 0.987 | > 5 | 0.988 | > 5 |
| KGN (ovary, adherent) | 0.812 | 3.41 | 0.854 | > 2.56 | 0.974 | > 5 | 0.904 | > 5 |
| KINGS-1 (glioma, adherent) | 0.971 | > 5 | 0.976 | > 2.56 | 0.98 | > 5 | 0.845 | > 5 |
| KM12 (large intestine, adherent) | 0.843 | 4.01 | 0.949 | > 2.56 | 0.983 | > 5 | 0.912 | > 5 |
| KM-H2 (Hodgkin lymphoma, suspension) | 0.987 | > 5 | 0.878 | 1.92 | 0.993 | > 5 | 0.987 | > 5 |
| KMOE-2 (acute myeloid leukaemia, suspension) | 0.971 | > 5 | 0.955 | > 2.56 | 0.99 | > 5 | 0.99 | > 5 |
